# From PubChem BioAssay AID1461 (National Center for Advancing Translational Sciences (NCATS), 2008)
# Values joined by “and” are separate entries in the source; they are usually repeats but may differ in a detail not shown here. Equal values may be shown once. In all, about 220,000 compounds went through this assay and about 2,300 (1%) were called active. The shares of active, inactive and inconclusive entries below differ from those in the screen. Calls follow the shape of the dose curve; as a rule, active = well fitted inhibition curve with a large enough effect; inconclusive = small, poorly fitted or top-dose-only effect, or effect the other way; inactive = no such curve, though single readings can be large or run the other way. Potencies beside an inconclusive call are fits to weak or partial responses and may not hold up.
# Target: Neuropeptide S receptor (Homo sapiens) (UniProt Q6W5P4)
# Sequence of UniProt Q6W5P4 (Q6W5P4 whole entry, looked up): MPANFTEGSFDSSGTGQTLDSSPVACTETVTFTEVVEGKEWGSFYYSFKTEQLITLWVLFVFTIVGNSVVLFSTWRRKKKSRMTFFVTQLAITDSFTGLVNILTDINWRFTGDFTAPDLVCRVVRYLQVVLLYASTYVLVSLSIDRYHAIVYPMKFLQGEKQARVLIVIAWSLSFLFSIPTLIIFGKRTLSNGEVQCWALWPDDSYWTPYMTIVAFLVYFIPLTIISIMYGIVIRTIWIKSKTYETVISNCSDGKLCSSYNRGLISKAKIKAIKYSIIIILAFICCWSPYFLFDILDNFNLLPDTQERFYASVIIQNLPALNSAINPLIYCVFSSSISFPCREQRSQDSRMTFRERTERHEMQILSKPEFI
# Assay: qHTS Assay for Antagonists of the Neuropeptide S Receptor: cAMP Signal Transduction; also: nearly all actives have a fitted effect of over 50% in size
# Settings: CHO-NPSR cells, cAMP TR-FRET, antagonist mode; series mostly up to 38.3 µM
# Potency is read from the fitted curve at half-maximal effect; tags tell the direction and shape of the fitted curve.
row,Structure (SMILES),Potency
1,Cc1ccc2cc(CN(Cc3ccc(F)cc3)Cc3nnnn3C3CCCC3)c(=O)[nH]c2c1,"inconclusive: 12.6 µM [inhibitor, partial curve]"
2,CCc1nn(C(C)C(=O)NCCc2ccc(OC)c(OC)c2)c(=O)c2cc3occc3n12 (stereo unspecified),"inconclusive: 5.01 µM [inhibitor, single point]"
3,S=C(N/N=C/c1ccccc1Cl)Nc1ccccc1,"inconclusive: 5.01 µM [inhibitor, full curve, poor fit]"
4,Cc1ccc(SC[C@H](CC(C)C)N2CCN(CCc3ccccc3)CCC2=O)cc1,"inconclusive: 10 µM [inhibitor, single point]"
5,C=CCn1cnc2c(c1=O)c1nc3ccccc3nc1n2/N=C/c1cccc(OC)c1OC,"inconclusive: 2 µM [inhibitor, single point]"
6,CCN1CCN(c2ncnc3c2nnn3Cc2ccccc2)CC1,"inconclusive: 20 µM [inhibitor, single point]"
7,COc1ccc(/C=C(/C(=O)c2cccs2)N2C=CC=CC2=C(C#N)C#N)cc1,"inconclusive: 10 µM [inhibitor, single point]"
8,Cc1ccc2[nH]c(=O)c(CN(Cc3cccs3)Cc3nnnn3Cc3ccccc3)cc2c1,"inconclusive: 10 µM [inhibitor, partial curve]"
9,O=C(Oc1ccccc1)Oc1ccc2c(c1)oc(=O)c1ccccc12,"inconclusive: 12.6 µM [activator, partial curve]"
10,N#C/C(=C/c1ccc(N2CCOCC2)o1)c1nc2ccccc2[nH]1,"inconclusive: 7.94 µM [inhibitor, partial curve]"
11,C/C(=N\O)c1ccc2c3ccccc3n(C)c2c1,"inconclusive: 10 µM [activator, single point]"
12,CCOc1ccc(CN(Cc2ccco2)C(c2cccs2)c2nnnn2C(C)(C)C)cc1 (stereo unspecified),"inconclusive: 10 µM [inhibitor, single point]"
13,CCOc1ccc(C(C)=O)cc1COC(=O)C1=COCCO1,inactive
14,O=C(/C=C/c1ccco1)NC(=S)Nc1nc(-c2ccc(Cl)cc2)cs1,active: 3.16 µM
15,Clc1ncnc2scc(C3COc4ccccc4O3)c12 (stereo unspecified),"inconclusive: 10 µM [inhibitor, partial curve]"
16,CCOCCCNC(=O)/C(C#N)=C/c1ccc([N+](=O)[O-])o1,"inconclusive: 12.6 µM [inhibitor, single point]"
17,CC(Sc1ccc2ccccc2n1)C(=O)O (stereo unspecified),"inconclusive: 10 µM [activator, partial curve] and inconclusive: 3.98 µM [inhibitor, full curve, poor fit]"
18,O=C(CN(c1cccc(C(F)(F)F)c1)S(=O)(=O)c1ccc(Cl)c([N+](=O)[O-])c1)NCc1ccccc1,"inconclusive: 10 µM [inhibitor, single point]"
19,Oc1cc2c(cc1O)CN(C(=S)NCCc1ccc(Cl)cc1)CCC2,"inconclusive: 10 µM [inhibitor, partial curve]"
20,O=C(Nc1nc2ccccc2s1)C1c2ccccc2Oc2ccccc21,"inconclusive: 12.6 µM [inhibitor, single point]"
21,CN(C)S(=O)(=O)c1ccc(Cl)c(NC(=O)COC(=O)CCSc2ccccc2)c1,inactive
22,Cc1cccc2cc(C#N)c(SCC(=O)NCC3CCCO3)nc12 (stereo unspecified),"inconclusive: 25.1 µM [inhibitor, single point]"

row,Structure (SMILES),Potency
1,CCN(CC)c1ccc(-c2nn3c(-c4n[nH]c5c4CCC5)nnc3s2)cc1,inactive
2,Nc1c(C(=O)N2CCCCC2)sc(=S)n1-c1ccccc1,inactive
3,CCCCCC(=O)O[C@]1(C(C)=O)CC[C@H]2[C@@H]3CCC4=CC(=O)CC[C@]4(C)[C@H]3CC[C@@]21C,active: 10 µM
4,O=c1c2ccccc2c2c(O)nc(-c3ccccc3)n2n1Cc1ccccc1,inactive
5,CCN1CCN(Cc2cc(=O)oc3cc4c(cc23)CCC4)CC1,"inconclusive: 25.1 µM [inhibitor, single point]"
6,CSc1ncccc1C(=O)OCC(=O)N(CC(C)C)C1CCS(=O)(=O)C1 (stereo unspecified),"inconclusive: 25.1 µM [inhibitor, single point]"
7,Clc1ccc2c(c1)C(N1CCNCC1)Cc1ccccc1S2 (stereo unspecified),"inconclusive: 25.1 µM [inhibitor, single point]"
8,CCOc1cc(CNCc2cccs2)cc(Br)c1OCC,"inconclusive: 25.1 µM [inhibitor, single point]"
9,CC(C)Sc1nc2c(c(=O)n(C)c(=O)n2C)n1Cc1ccc(Cl)cc1,"inconclusive: 15.8 µM [inhibitor, single point]"
10,O=C(Nc1c(F)cc(F)cc1Br)c1cc(-c2ccc(O)cc2)on1,"inconclusive: 31.6 µM [inhibitor, single point]"
11,Cc1cc(/C=N/Nc2nc(N)ncc2[N+](=O)[O-])c(C)n1-c1ccccc1F,inactive
12,Cc1[nH]c2ccccc2c1-c1nc2ccccc2[nH]1,"inconclusive: 15.8 µM [inhibitor, partial curve, poor fit]"
13,CN1CC(c2ccc(Cl)c(Cl)c2)[C@@]2(COc3ccccc3C2=O)[C@@]12C(=O)Nc1ccccc12 (stereo partly specified),"inconclusive: 12.6 µM [inhibitor, single point]"
14,Cc1cccc(N2CN(Cc3cccnc3)CNC2=S)c1,inactive
15,CC1=CSC2=NC(=O)/C(=C\c3cccn3-c3ccccc3)C(=N)N12,inactive
16,CCOC(=O)c1ccc(NC(=S)NC2CC(C)(C)NC(C)(C)C2)cc1,"inconclusive: 3.98 µM [inhibitor, single point]"
17,CNC(=S)N/N=C1\C(=O)c2cccc3cccc1c23,active: 3.16 µM
18,COc1ccc(OC)c2c(N)c(C#N)c(C(F)(F)C(F)(F)F)nc12,"inconclusive: 12.6 µM [activator, single point]"
19,Cn1cc(/C=N/NC(N)=S)c2ccccc21,"inconclusive: 25.1 µM [inhibitor, single point]"
20,CC(=O)c1oc2ccccc2c1NC(=O)CCCN1C(=O)c2ccccc2C1=O,inactive
21,CC(=O)Nc1ccc(C(=O)N/N=C/c2ccc(F)cc2)cc1,inactive
22,CCOC(=O)C1=C(N)OC2=C(C(=O)CC(C)(C)C2)C1C1CCCCC1 (stereo unspecified),"inconclusive: 25.1 µM [inhibitor, single point]"

row,Structure (SMILES),Potency
1,CCOC(=O)N1CCN(C(=S)NC(=O)c2ccc(F)c(F)c2)CC1,inactive
2,CCn1c(SCC(=O)c2ccc(Cl)cc2)nnc1-c1ccoc1C,"inconclusive: 10 µM [inhibitor, partial curve]"
3,COc1ccccc1NC(=O)N(Cc1ccco1)Cc1cc2cc(C)cc(C)c2[nH]c1=O,"inconclusive: 12.6 µM [inhibitor, single point]"
4,O=[N+]([O-])c1ccc(O)c(/C=N/n2cnnc2)c1,inactive
5,COc1cc(/C=N/N2C(=O)CSC2=S)ccc1O,inactive
6,O=S(=O)(Nc1ccc(-c2csc(-c3ccccc3)n2)cc1)c1ccc(F)cc1,"inconclusive: 12.6 µM [inhibitor, single point]"
7,O=C(NC(=S)N(Cc1ccccc1)Cc1ccccc1)C1CCCCC1,"inconclusive: 10 µM [inhibitor, single point]"
8,O=C(COC(=O)C12CC3CC(CC(C3)C1)C2)Nc1ccc(OC(F)F)cc1,"inconclusive: 25.1 µM [inhibitor, single point]"
9,[O-]/C(=C(\C(=S)Nc1ccccc1F)[n+]1ccccc1)c1ccc(-c2ccccc2)cc1,inactive
10,CC(C)N(C(=O)CSc1nc2ccccc2n1Cc1ccccc1)C(C)C,"inconclusive: 25.1 µM [inhibitor, single point]"
11,O=C(Cc1ccc(Cl)cc1)Nc1ccc(N2CCN(C(=O)c3ccco3)CC2)c(Cl)c1,"inconclusive: 12.6 µM [inhibitor, partial curve, poor fit]"
12,CN(C(=O)COC(=O)c1ccc(Cl)cc1N)C1CCS(=O)(=O)C1 (stereo unspecified),"inconclusive: 0.398 µM [inhibitor, partial curve]"
13,Cc1ccc(-c2csc3nc4c5ccccc5c(NCCCN5CCOCC5)nn4c(=O)c23)cc1,"inconclusive: 12.6 µM [inhibitor, single point]"
14,O=C(NC1CC2CCCC(C1)N2C(=O)NC1CCCCC1)c1ccccc1 (stereo unspecified),"inconclusive: 12.6 µM [inhibitor, partial curve]"
15,Cc1ccc(-c2[nH]nc3c2C(c2ccc(OC(=O)N4CCOCC4)cc2)C(C#N)=C(N)O3)cc1 (stereo unspecified),"inconclusive: 6.31 µM [inhibitor, partial curve, poor fit]"
16,COc1ccc(C2CC(=O)c3cnc(NC(=O)c4cc(OC)cc(OC)c4)nc3C2)cc1 (stereo unspecified),"inconclusive: 12.6 µM [inhibitor, partial curve]"
17,CCC(CC)C(=O)Nc1nnc(SCC(=O)N2CCN(c3ccccc3OC)CC2)s1,"inconclusive: 10 µM [inhibitor, single point]"
18,Cc1cccc(OCC(=O)N/N=C\c2cc3c(cc2[N+](=O)[O-])OCO3)c1C,"inconclusive: 10 µM [inhibitor, single point]"
19,COc1ccc(S(=O)(=O)N(CC(=O)N2CCN(c3ccccc3)CC2)c2ccccc2)cc1,"inconclusive: 12.6 µM [inhibitor, partial curve, poor fit]"
20,N#Cc1c(NCCO)nc(NCc2ccccc2)c2c1CCN(Cc1ccccc1)C2,"inconclusive: 3.16 µM [inhibitor, full curve, poor fit]"
21,COc1ccccc1NC(=O)c1nnn(CC(=O)Nc2cccc(SC)c2)c1N,"inconclusive: 5.01 µM [inhibitor, partial curve]"
22,CSCc1cc(N(C)C)nc(SCc2ccc(Cl)cc2Cl)n1,"inconclusive: 12.6 µM [inhibitor, single point]"
